Consider 96 compounds from PubChem BioAssay AID485344 (National Center for Advancing Translational Sciences (NCATS), 2010).

The term inhibition denotes the drop in the measured response relative to a control, in per cent.

Hit rate of the full screen: of about 340,000 compounds, about 6,900 (2%) were called active. No stated cut-off is given here; in the data, active means inhibition above about 30%; inactive means below that, where a call was filed. The entries are a selection whose mix differs from that of the whole data set. Entries without a call were filed so in the source.

Chain of UniProt P14416 (P14416 whole entry, looked up): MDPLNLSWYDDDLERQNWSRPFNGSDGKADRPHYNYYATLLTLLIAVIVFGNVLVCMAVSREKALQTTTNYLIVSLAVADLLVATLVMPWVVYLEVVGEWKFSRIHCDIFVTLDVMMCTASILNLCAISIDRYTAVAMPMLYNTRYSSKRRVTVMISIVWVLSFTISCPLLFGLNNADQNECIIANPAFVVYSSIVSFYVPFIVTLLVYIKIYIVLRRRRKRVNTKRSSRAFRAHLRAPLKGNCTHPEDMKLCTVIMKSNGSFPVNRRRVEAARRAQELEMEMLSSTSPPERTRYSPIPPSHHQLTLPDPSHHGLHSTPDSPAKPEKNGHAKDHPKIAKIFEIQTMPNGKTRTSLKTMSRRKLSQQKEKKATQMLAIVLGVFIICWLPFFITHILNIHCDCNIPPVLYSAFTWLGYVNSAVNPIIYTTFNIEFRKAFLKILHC

In the assay the target is D(2) dopamine receptor (Homo sapiens) (UniProt P14416). The experiment in a line: HTS Assay for Allosteric Antagonists of the Human D2 Dopamine Receptor: Primary Screen for Antagonists. Further: 0% is about no effect. The settings on record: HEK293 TREx D2 cells, calcium flux, dopamine EC80; at 10 µM; stronger effect = higher value. Summed up:
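Calcium mobilization kinetics were recorded at 1 s intervals in tetracycline-induced HEK293 T-REx D2 cells, first for 180 s after compound addition and then 180 s after EC80 dopamine.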
Background: Calcium flux is commonly read through the fluorescence of an indicator in the cells.
Turning to `CCOC(=O)c1ccc(NC(=O)CN2C(=O)c3cccnc3Oc3ccc(Cl)cc32)cc1`, the inhibition is -5.72%.

Take `CCOc1ccc(NC(=O)N2CCOc3ccccc32)cc1`: the inhibition was -19.7%.

Take `N#Cc1ccc(-c2cccs2)nc1SCc1ccc(Cl)cc1Cl`: the inhibition stood at 0.628%.

`Cc1ccnc(NC(c2ccccc2F)c2ccc3cccnc3c2O)c1` (stereo unspecified): the inhibition came to 18%.

Consider `CCc1ccccc1NC(=O)CSc1nnc(-c2nonc2NC(C)=O)n1C`, for which the inhibition stood at 17.5%.

As to `CCCOc1ccccc1Cn1c(=O)sc2ccccc21`, the inhibition was determined as 13.5%.

For `O=C(NNc1ncnc2c1cnn2-c1ccccc1)c1cccc(Cl)c1`, the inhibition turned out to be 15.6%.

As to `COc1ccc(Cl)c(Cn2c(NCCN)nc3c2c(=O)n(C)c(=O)n3C)c1`, the inhibition amounted to 0.0664%.

As for `CCCCN(CC)CCCNC(=S)Nc1ccc2nc(N3CCN(CC)CC3)cc(C)c2c1`, the inhibition was active: 41.4%.

`COc1ccc(C(=O)NCc2nnnn2-c2ccc(C)c(C)c2)cc1`: the inhibition was determined as 1.54%.

As to `Cc1ccc(OCCSc2nc3ccccc3n2CC(=O)N2CCOCC2)c(C)c1`, the inhibition came out at 10.3%.

Take `CCOc1ccc(NC(=O)CN2C(=O)COc3ccc(S(=O)(=O)Nc4ccccc4)cc32)cc1`: the inhibition is -12.7%.

As for `Cc1ccc(Cl)cc1NC(=O)Cn1nc2c(cc1=O)CC(C)CC2` (stereo unspecified), the inhibition was -23.6%.

On to `CCOC(=O)C1CCCN(Cc2ccc(OC)c(OCc3ccccc3)c2)C1` (stereo unspecified), for which the inhibition was active: 45.4%.

For `COc1ccc(C(=O)Nc2ccc3nc4n(c(=O)c3c2)CCCCC4)cc1OC`, the inhibition was -9.18%.

As to `CC(C)OCCCNC(=O)CCCn1c(SCC(=O)c2ccc(Br)cc2)nc2c(sc3ccccc32)c1=O`, the inhibition came to 1.42%.

Take `COc1ccc(CNC(=O)c2cnn3c(C)c(Cc4ccc(F)cc4)c(C)nc23)cc1`: the inhibition came to 3.39%.

As to `O=C(CC1(O)C(=O)N(CN2CCOCC2)c2ccccc21)c1ccccc1` (stereo unspecified), the inhibition is active: 30.3%.

With `Cc1cc(C)c(NC(=O)Cn2c(=O)n(CCCCC(=O)NCc3ccccc3Cl)c(=O)c3ccccc32)c(C)c1`, the inhibition turned out to be 10.5%.

In the case of `Cc1cc(Nc2cccc(Cl)c2C)n2nc(Cc3ccccc3)nc2n1`, the inhibition was -24.9%.

Turning to `COc1ccc(CNC(=O)CCCn2c(SCC(N)=O)nc3cc4c(cc3c2=O)OCO4)cc1`, the inhibition is -5.21%.

As to `COc1cc(Cl)c(C)cc1NC(=O)c1cn(CC(C)C)c(=O)c2cc(OC)c(OC)cc12`, the inhibition is -0.543%.

For `CCN(CC)C(=O)CSc1nc2cc3c(cc2c(=O)n1Cc1ccc(C(=O)NCCc2ccc(OC)c(OC)c2)cc1)OCO3`, the inhibition was -1.06%.

On to `CCOc1ccccc1NC(=O)Cn1c(=O)n(Cc2ccccc2)c(=O)c2c(C)c(C(=O)N(C)C)sc21`, for which the inhibition was 4.33%.

`Cc1ccc(-c2cn3c(n2)sc2cc(C(=O)N4CCCCC4)ccc23)cc1`: the inhibition is -15.9%.

As to `Cc1ccc(NC(=O)NCc2cccn2Cc2ccccc2)cc1F`, the inhibition was 15.5%.

Regarding `COC(=O)C(C)Sc1nc2c([nH]c3ccccc32)c(=O)n1-c1ccc(OC)cc1` (stereo unspecified), the inhibition came out at 14.6%.

For the compound `O=C(Nc1ccc2nc(SCC(=O)N3CCCC3)sc2c1)c1ccc(F)cc1`, the inhibition turned out to be 4.34%.

For `O=C1C(Cl)=C(NCc2cccnc2)C(=O)c2ccccc21`, the inhibition was active: 33.7%.

Take `CC(=O)Nc1ccc(C2=NNC(=Nc3ccc(S(=O)(=O)N4CCOCC4)cc3)SC2)cc1`: the inhibition is active: 42.7%.

With `CCOc1cc(C2c3c(oc4ccccc4c3=O)C(=O)N2Cc2ccc3c(c2)OCO3)ccc1O` (stereo unspecified), the inhibition was determined as 13.4%.

With `Cc1ccc(-n2ncc(C(=O)Nc3ccc(C)c(F)c3)c2C2CCN(C(=O)OC(C)(C)C)CC2)cc1C`, the inhibition stood at 16.9%.

For `Cc1ccc(CNC(=O)CCCCn2c(=O)c3ccccc3n(Cc3ccc(Cl)cc3)c2=O)cc1`, the inhibition was -15.7%.

With `Cc1nc2sc(C(=O)NCc3ccc(Cl)cc3)c(NC(=O)c3ccccc3)c2c(C)c1C`, the inhibition is 1.94%.

As to `Cc1ccccc1NC(=O)c1nc(-c2ccncc2)no1`, the inhibition was found to be 12.9%.

Turning to `CCC(C(=O)OCc1cc(=O)n2nc(CCOC)sc2n1)c1ccccc1` (stereo unspecified), the inhibition is -2.26%.

In the case of `Cc1ccc(NC(=O)Cn2c(CCC(=O)O)ccc2-c2cccs2)cc1`, the inhibition amounted to 11.6%.

Consider `CCOc1cccc(C2c3c(oc4ccccc4c3=O)C(=O)N2c2nc(C)c(C(=O)OC)s2)c1` (stereo unspecified), for which the inhibition amounted to 8.58%.

As to `Cc1ccc2occ(CC(=O)Nc3nnc(C(C)C)s3)c2c1`, the inhibition was 9.82%.

On to `O=C(Nc1nnc(S(=O)(=O)N2CCCc3ccccc32)s1)c1ccccc1Br`, for which the inhibition was -0.766%.

`COc1ccc(CNC(=O)c2ccc3c(c2)N(Cc2ccccc2)C(=O)c2ccccc2S3(=O)=O)cc1`: the inhibition amounted to 1.33%.

For `COc1ccc(-c2cc3nc(C4CCN(C(=O)OC(C)(C)C)CC4)c(C(=O)Nc4cc(Cl)cc(Cl)c4)cn3n2)cc1`, the inhibition was 12.5%.

Regarding `CCOc1ccccc1N(C)C(=O)c1nn(-c2ccc(C)cc2)c(=O)c2c1c1ccccc1n2C`, the inhibition turned out to be 5.35%.

As for `CCOc1ccccc1-c1nnc(SCc2ccc(Cl)cc2)o1`, the inhibition is 0.485%.

Regarding `COCCCNC(=O)c1cc(-c2cccnc2)nc2ccccc12`, the inhibition was -12.9%.

For `COc1ccc(OC)c(NC(=O)c2csnn2)c1`, the inhibition is 8.41%.

With `CC1=C(C(=O)Nc2ccc(C)cc2C)C(c2sccc2C)n2ncnc2N1` (stereo unspecified), the inhibition was determined as 16.4%.

Take `COc1ccc(-n2c(SCC(=O)N3CCC(C)CC3)nc3c([nH]c4ccccc43)c2=O)cc1`: the inhibition was found to be 9.9%.

Turning to `CCCN(CCC)C(=O)Cn1c(=O)n(Cc2ccc(C(=O)NCCc3ccc(OC)c(OC)c3)cc2)c(=O)c2ccccc21`, the inhibition is 12.1%.

On to `COCCNC(=O)c1ccc(Cn2c(SCC(=O)NC(C)C)nc3ccccc3c2=O)cc1`, for which the inhibition turned out to be 5.8%.

On to `CCCN(C(=O)c1cc2c(Cl)nc3ccccc3c2s1)c1cccc(C)c1`, for which the inhibition is 10.1%.

As for `CCOc1cc(CNc2ccc(O)cc2)cc(Br)c1OCc1ccccc1`, the inhibition was -12.1%.

`Cc1ccc(OCCn2c(-c3ccc(Cl)cc3)nc3ccccc3c2=O)c(C)c1`: the inhibition was 17.9%.

Take `O=C(CNC(=O)c1cccc(-n2cnnn2)c1)Nc1ccc(F)c(F)c1`: the inhibition was active: 37.8%.

As for `Cc1ccccc1CNC(=O)c1ccc(-n2c(C)cc3c2CCCC3)cc1`, the inhibition is -2.17%.

On to `Cc1ccc(C)c(Cn2nc3c4ccccc4n(Cc4ccccc4)cc-3c2=O)c1`, for which the inhibition was active: 30.4%.

For `COc1ccccc1CNC(=O)C1CCN(Cc2nc(-c3ccc(OC)c(OC)c3)oc2C)CC1`, the inhibition is 7.51%.

With `COc1cccc(-c2nnc3n(Cc4ccc(F)cc4)c(=O)c4ccccc4n23)c1`, the inhibition was determined as 15.1%.

Regarding `COc1ccc(CCNC(=O)NCc2noc3ccccc23)c(OC)c1`, the inhibition is 5.98%.

Consider `CC1=C(C(=O)Nc2ccc(C)cc2C)C(c2ccccc2C)n2ncnc2N1` (stereo unspecified), for which the inhibition was -9.39%.

Regarding `CN(C)c1ccc(C(CNS(=O)(=O)c2ccc(Cl)cc2)N2CCCC2)cc1` (stereo unspecified), the inhibition was -23.5%.

With `Cc1ccc(-n2cccn2)c(CN2CCCC(C(=O)c3sccc3C)C2)c1` (stereo unspecified), the inhibition was active: 72.6%.

Regarding `COc1cc(C(=O)NCC(c2cccnc2)N2CCN(c3ccc(F)cc3)CC2)cc(OC)c1OC` (stereo unspecified), the inhibition came to 7.5%.

Take `Cc1cccc(-c2nc3c(C#N)c[nH]n3c2NC2CCCCC2)c1`: the inhibition was 6.08%.

For `Cc1ccc(-c2noc(CN(C3CCCCC3)S(=O)(=O)c3ccc(C)cc3)n2)cc1`, the inhibition was -10.2%.

Take `COc1cc(NC(=O)c2noc3c2CCc2ccccc2-3)cc(OC)c1OC`: the inhibition is 11.1%.

For `Cc1nn(-c2ccc3nncn3n2)c(C)c1CCC(=O)Nc1ccc(OC(F)(F)F)cc1`, the inhibition is 0.485%.

As to `Cc1cc(C)c(/C=C(\C#N)C(N)=S)c(C)c1`, the inhibition is active: 84%.

Regarding `COc1ccc(Br)cc1CNC(=O)CCCn1c(=O)c2cccn2c2ccccc21`, the inhibition was 20.9%.

As for `CCOCC(=O)Nc1nnc(COC)s1`, the inhibition is active: 31.1%.

In the case of `O=C(Nc1ccc(Cl)cc1)C1CCN(c2nc3ccccc3n3cccc23)CC1`, the inhibition was -0.526%.

Consider `CC(C)(C)OC(=O)N1CCC(c2c(C(=O)NCc3ccc4c(c3)OCO4)cnn2-c2ccc(F)cc2F)CC1`, for which the inhibition was -0.0982%.

For the compound `CCC(Oc1ccccc1F)C(=O)Nc1c(C(=O)c2ccccc2)oc2ccccc12` (stereo unspecified), the inhibition was -11%.

Take `CCCCN(C)CCNC(=O)c1cc(-c2cccnc2)nc2ccc(S(=O)(=O)N3CCC(C)CC3)cc12`: the inhibition is 10.5%.

Regarding `O=C(c1ccccc1)N1CCCCC(Cl)C1=O` (stereo unspecified), the inhibition is active: 31.1%.

`Cc1ccn2c(c1)nc(=O)c1cc(S(=O)(=O)N3CCC(C)CC3)c(Cl)cc12`: the inhibition was 8.44%.

Take `CN(Cc1ccccc1)c1nc(-c2ccc(F)cc2)cc(C(F)(F)F)n1`: the inhibition was determined as 13.8%.

For the compound `O=C(COc1ccccc1F)Nc1ccc(C(=O)OCc2cc(=O)n3nc(C4CC4)sc3n2)cc1`, the inhibition is 1.25%.

On to `Cc1ccc(NC(=O)CCSCCc2ccccn2)cc1`, for which the inhibition was -20.1%.

On to `CCc1ccc(-n2c(C)nnc2SCc2nc(-c3ccc(OC)cc3)no2)cc1`, for which the inhibition was 7.85%.

Take `O=C(Nc1ccc(Cl)cc1Cl)c1cc(S(=O)(=O)N2CCN(c3ccccc3F)CC2)ccc1F`: the inhibition is -3.15%.

For `COc1ccc(NC(=O)c2c(N)c(C(=O)c3ccc(OC)cc3)n3ccccc23)cc1`, the inhibition is -6.7%.

On to `COc1ccc(N2CCN(C(=O)CSc3nc4ccccc4nc3Cc3ccc(Cl)cc3)CC2)cc1`, for which the inhibition stood at 10.5%.

In the case of `Cc1c(C(=O)NCCc2ccc(Cl)cc2)cccc1-n1cnc2cccnc21`, the inhibition amounted to 0.114%.

With `COc1ccc(N2CCN(C(=O)c3cc(-c4ccc(C)c(F)c4)on3)CC2)cc1`, the inhibition was -9.81%.

For `CCOc1ccc(CC(=O)NCCS(=O)(=O)N2CCN(c3ccc(OC)cc3)CC2)cc1`, the inhibition is -17.8%.

As to `CCn1c2ccccc2c2cc(CN3CCN(Cc4ccc(OC)c(OC)c4)CC3)ccc21`, the inhibition is -14.1%.

For `CCCn1c(/C=C/c2ccccc2)nc2ccccc21`, the inhibition was 1.92%.

In the case of `Cc1coc2c1c(C)cc1oc(=O)c(CC(=O)NCCc3ccc(Cl)cc3)c(C)c12`, the inhibition turned out to be 4.43%.

On to `CCn1c(CN2CCCCC2)nc2cc(NC(=O)COc3ccccc3C(C)(C)C)ccc21`, for which the inhibition is -6.38%.

With `O=C(NCCc1ccc(Cl)cc1)C(=O)NCC(c1ccco1)S(=O)(=O)c1ccccc1` (stereo unspecified), the inhibition was -16.2%.

`Cc1ccc(NC(=O)C(=O)NCC(c2cccnc2)N2CCN(C)CC2)cc1` (stereo unspecified): the inhibition amounted to 12.8%.

`Cc1c(C(=O)NCc2ccccc2)oc2ccc(S(=O)(=O)N3CCC(C)CC3)cc12`: the inhibition is -6.15%.

Turning to `COc1ccc(CCNC(=O)c2c(O)nc3c(C)cccn3c2=O)cc1OC`, the inhibition came to 2.93%.

Consider `COc1ccc(C)cc1NC(=O)c1ccc2nc(Cc3ccccc3)oc2c1`, for which the inhibition is -7.45%.

For `CCn1c2c(c(=O)n3ncc(C(=O)Nc4ccc(C(=O)OC)cc4)c13)CN(Cc1ccc(OC)cc1)CC2`, the inhibition was determined as 7.78%.
